110 compounds from PubChem BioAssay AID488969 (Vanderbilt High Throughput Screening Facility, 2010) can be followed below.

Whole data set: some 110,000 compounds, median “z-score” near -0.1, cut for the highest 2% near 2. This is one part of the list. The source made the active and inactive calls.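 Rule for the calls: active = z-score in the third read window above 3 or below -3; inactive = the rest.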

The experiment has as its target Metabotropic glutamate receptor 8 (Rattus norvegicus) (UniProt P70579). Kind of experiment: mGluR8 Gi/Go-coupled signaling modulation – cell-based, rat, thallium flux, HTS, primary screen (AID 488969). The note with it: HEK293 rat mGluR8, GIRK (G protein-gated inwardly rectifying potassium channel) thallium flux, FluoZin2; at 10 µM; stronger effect = higher value; submaximal glutamate (EC20) added with thallium.
Chain of UniProt P70579 (P70579 whole entry, looked up): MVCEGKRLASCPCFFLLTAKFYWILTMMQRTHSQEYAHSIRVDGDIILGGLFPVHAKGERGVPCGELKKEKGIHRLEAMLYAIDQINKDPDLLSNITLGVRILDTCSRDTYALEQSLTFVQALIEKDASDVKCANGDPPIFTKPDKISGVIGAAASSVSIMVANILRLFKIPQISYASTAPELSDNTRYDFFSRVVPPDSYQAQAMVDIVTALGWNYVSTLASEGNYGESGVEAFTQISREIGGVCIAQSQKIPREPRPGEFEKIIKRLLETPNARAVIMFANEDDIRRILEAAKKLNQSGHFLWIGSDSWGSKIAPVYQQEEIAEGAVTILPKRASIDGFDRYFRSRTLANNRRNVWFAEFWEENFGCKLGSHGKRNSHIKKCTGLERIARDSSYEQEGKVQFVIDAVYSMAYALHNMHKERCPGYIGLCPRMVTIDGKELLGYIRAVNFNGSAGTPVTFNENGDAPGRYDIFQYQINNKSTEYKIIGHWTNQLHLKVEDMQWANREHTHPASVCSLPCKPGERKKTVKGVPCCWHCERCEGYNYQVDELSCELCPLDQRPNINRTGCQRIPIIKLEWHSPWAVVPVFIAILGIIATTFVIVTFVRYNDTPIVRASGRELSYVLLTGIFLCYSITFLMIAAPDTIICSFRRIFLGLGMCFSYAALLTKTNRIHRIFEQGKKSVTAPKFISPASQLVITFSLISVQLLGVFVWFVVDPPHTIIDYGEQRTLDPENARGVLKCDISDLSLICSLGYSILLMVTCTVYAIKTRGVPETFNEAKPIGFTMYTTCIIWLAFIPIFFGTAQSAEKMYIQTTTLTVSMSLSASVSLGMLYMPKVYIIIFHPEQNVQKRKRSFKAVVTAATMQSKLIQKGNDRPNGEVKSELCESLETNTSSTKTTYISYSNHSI
On to `CC1(C)Cc2c(sc3c2c(=N)n(Cc2ccco2)c(=O)n3Cc2ccccc2)CO1`, for which the z-score was -0.918.

Turning to `CCCCCCCC(=O)NNC(=O)CC(=O)Nc1ccccc1C(=O)O`, the z-score is -0.243.

As for `Cc1ccccc1-c1nnc(SCC(=O)Nc2cccc(C)c2C)o1`, the z-score is -0.37.

For the compound `O=C(Nc1ccc(Nc2ccccc2)cc1)c1ccc(Br)o1`, the z-score is -0.349.

`Cc1[nH]nc2c1C(c1ccc3c(c1)OCO3)C(C#N)=C(N)O2` (stereo not given): the z-score is -1.05.

Take `Cc1ccc(-c2c[n+](CC(=O)Nc3cc(=O)n(C)c(=O)n3C)c3n2CCC3)cc1`: the z-score is -0.368.

`CCc1nnc2sc(-c3ccc(NC(=O)c4ccco4)cc3)nn12`: the z-score was -0.459.

For `O=C(NCC1CCCO1)c1ccc2c(=O)n(CC3CCCO3)c(=S)[nH]c2c1` (stereo not given), the z-score was determined as 0.352.

Take `CCC(=O)N1CCN=C1SCc1ccccc1Cl`: the z-score is -0.534.

As to `Cc1ccc(C(=O)/C=C/c2ccccc2)o1`, the z-score is -0.627.

Compound `COc1ccc(/C=C(\NC(=O)c2cccs2)C(=O)N2CCOCC2)cc1OC` showed a z-score of 0.0605.

Turning to `O=C(OCc1ccc(Br)cc1)c1cccc(-c2nnc(-c3ccccc3)o2)c1`, the z-score is -0.109.

As for `O=C(CSc1ncn[nH]1)Nc1ccc(Cl)c(Cl)c1`, the z-score was -0.226.

`Cc1cccc(C(=O)Oc2coc(CSc3nnc(NC(=O)C4CC4)s3)cc2=O)c1` had a z-score of 0.102.

On to `COc1ccc(CNC(=O)CSc2nc3ccc(N)cc3s2)cc1`, for which the z-score was -0.0992.

For `CCOc1ccc(Br)cc1S(=O)(=O)Nc1ccc(N2CCOCC2)cc1`, the z-score was 1.29.

On to `O=c1[nH]c2ccc(S(=O)(=O)N3CCCCC3)cc2o1`, for which the z-score worked out at 0.347.

In the case of `Clc1cc(Br)ccc1OCCOCCOc1cccc2cccnc12`, the z-score is -0.108.

The compound `CC(/C(O)=C(\C#N)c1nc2ccccc2n1C)N1C(=O)c2ccccc2C1=O` (stereo not given) registered a z-score of 0.599.

Consider `CC(=O)Nc1ccc(NC(=O)c2ccc(Cn3cc(Cl)cn3)cc2)cc1`, for which the z-score was -0.369.

Regarding `O=C(/C=C/c1ccc(Cl)cc1)N1CCN(c2ccc(Cl)cc2[N+](=O)[O-])CC1`, the z-score is -0.222.

Take `O=C(COC(=O)/C=C/c1cccc(Cl)c1)NCCc1ccccc1`: the z-score was -0.15.

Consider `CCOC(=O)c1c(NC(=O)CC2SC(N)=NC2=O)sc2c1CCCC2` (stereo not given), for which the z-score is -1.02.

For the compound `Cc1nc2sc(C(c3cccc(F)c3)N3CCC(C)CC3)c(O)n2n1` (stereo not given), the z-score is -1.47.

Consider `Cc1cc2c(cc1C)N(CC(=O)N1CCCC1)C(=O)CC(c1ccccc1)=N2`, for which the z-score was -0.328.

As for `CCc1cc2c(=O)c(-c3nc4ccccc4n3C)coc2c(CN2CCN(C)CC2)c1O`, the z-score was -0.324.

On to `COc1ccc(NC(=O)/C(=C/c2ccc(OC(C)=O)c(OC)c2)NC(C)=O)cc1`, for which the z-score was -0.216.

`CCOC(=O)C1=C(C)NC(=O)C(C(N)=O)C1c1ccccc1` (stereo not given) gave a z-score of 0.0883.

In turn, `CN(CCCNC(=O)C1CCCN(S(=O)(=O)c2cnc[nH]2)C1)c1ccccc1` (stereo not given) came in with a z-score of 0.133.

`Cc1ccc(Oc2ncnc3sccc23)cc1` had a z-score of 0.102.

`CCc1ccc(NC(=O)c2noc3c2CCC3)cc1` registered a z-score of 0.285.

Turning to `O=C(Cn1c(SCc2ccccc2)nc2ccccc21)N1CCOCC1`, the z-score is -0.096.

In the case of `CN(Cc1cccc(Cl)c1Cl)C(=O)c1ccc(NC(=O)CC#N)cc1`, the z-score is -0.558.

For `CN1CCCC(CC2Oc3ccccc3Sc3ccccc32)C1` (stereo not given), the z-score came out at 0.766.

In the case of `COc1ccc2c3c(c(=O)oc2c1OCC(N)=O)CCCC3`, the z-score is -0.489.

In the case of `Nc1nonc1NC(=O)CSc1nc2ccccc2s1`, the z-score was -0.00432.

Regarding `CCOC(=O)c1c(/N=C/N(C)C)sc(C(=O)OC)c1C`, the z-score is 0.721.

`CC(C)(C)NC(=O)COC(=O)c1snc(C(=O)NC2CCCCC2)c1N` yielded a z-score of 0.25.

In the case of `Cc1nc(Nc2c(Cl)cccc2Cl)sc1C(=O)Nc1ccccc1`, the z-score was -0.0239.

Take `O=S(=O)(c1ccc(F)cc1)n1ccc2cccnc21`: the z-score was -0.0458.

For the compound `CCCCC(=O)NC(c1cccc([N+](=O)[O-])c1)c1c(OC(C)=O)ccc2ccccc12` (stereo not given), the z-score is -0.98.

Consider `COc1c(F)c(F)c(C(=O)Nc2ccc(N3CCN(Cc4ccccc4)CC3)cc2)c(F)c1F`, for which the z-score is -0.191.

`COc1cccc(OCCn2cc(/C=N/NC(=O)c3ccncc3)c3ccccc32)c1`: the z-score amounted to 0.0038.

As for `Cn1c(=O)c2c(ncn2CC(=O)N2CCN(c3ccc(F)cc3)CC2)n(C)c1=O`, the z-score was -0.244.

`CCc1ccccc1NC(=O)CN(C)C(=O)Cn1ncc(Cl)c(Cl)c1=O`: the z-score worked out at 0.269.

As for `CCCCNC(=O)c1onc(CSc2ccc(Cl)cc2)c1C(=O)O`, the z-score was -0.552.

Turning to `Cc1ccccc1OCC(=O)NNC(=S)NC(=O)c1ccco1`, the z-score was active: 8.07.

With `CCn1cnc2cc(NCc3nc4ccccc4n3Cc3ccccc3)ccc21`, the z-score was -0.34.

`O=C(CSc1nnc(NC2CCCCC2)s1)NN1C(=O)NC2(CCCCC2)C1=O` had a z-score of 0.151.

As to `CC(=O)Nc1ccc2c(c1)nc(CCNC(=O)c1ccccc1)n2C`, the z-score was -0.205.

Take `COc1cc(NC(=O)CN2C(=O)NC(c3ccccc3)(c3ccccc3)C2=O)c(C)cc1[N+](=O)[O-]`: the z-score was -0.621.

For `O=C(Nc1ncc(Br)s1)C(Cc1ccccc1)n1cccc1` (stereo not given), the z-score is active: 7.

In turn, `NC(=O)CSc1nnc(-c2ccco2)n1N` displayed a z-score of 0.137.

As for `COCCn1c(SCc2nc3ccccc3c(=O)[nH]2)nnc1-c1ccncc1`, the z-score was found to be 0.00578.

For the compound `O=C(NNC(=O)c1ccccc1Cl)c1cccs1`, the z-score was 0.286.

Take `O=C(NC(=S)N(CCc1ccccc1)CCc1ccccc1)c1ccco1`: the z-score was -1.87.

In turn, `C=CCNC(=S)N/N=C/c1ccc(-c2cc(Cl)ccc2Cl)o1` yielded a z-score of 0.31.

Compound `Cc1cc(N2CCOCC2)c2c(N)c(C)cc(C)c2n1` returned a z-score of 0.0623.

Turning to `CCCCc1c(C)nc(Nc2ccc(OC)cc2)[nH]c1=O`, the z-score was -0.449.

`O=C(NCC1COc2ccccc2O1)C1CCCN(S(=O)(=O)c2cccc3nsnc23)C1` (stereo not given): the z-score turned out to be 0.528.

In the case of `CCCCn1c(N)nc2ccccc21`, the z-score was -0.706.

On to `COc1cccc(C(C(=O)NC2CCCC2)N(Cc2ccc(C)cc2)C(=O)c2ccco2)c1OC` (stereo not given), for which the z-score is -0.348.

On to `COc1ccc(N2C(=O)CC(SCCc3nc4ccccc4[nH]3)C2=O)cc1` (stereo not given), for which the z-score was -0.0147.

Turning to `COc1cccc(Nc2nc(=O)[nH]nc2C)c1`, the z-score was -0.171.

Turning to `Cc1ccc(CNC(=O)c2ccc([N+](=O)[O-])o2)cc1`, the z-score was -0.291.

For `CC(C)NC(=O)C(Cc1ccccc1)N1C(=O)c2ccccc2C1=O` (stereo not given), the z-score was -0.79.

`O=C(COc1ccc(F)cc1)NCC1CCCO1` (stereo not given) returned a z-score of 0.0433.

`CC1=CC(=O)C=CC1(C)C(Cl)Cl` (stereo not given): the z-score was -0.0822.

Compound `CCc1cc2cc3c(cc2nc1SCC(=O)Nc1nnc(C)s1)OCCO3` yielded a z-score of 0.803.

For `CCCCNC(=O)CC1C(=O)N(Cc2ccccc2)C(C)c2nc3ccccc3n21` (stereo not given), the z-score was -0.0491.

For the compound `COc1ccccc1C1C=C(c2ccc(Cl)cc2)Nc2nc(NS(C)(=O)=O)nn21` (stereo not given), the z-score is -0.156.

`C=CCn1c(=NC(=O)CN2C(=O)CCC2=O)sc2cccc(OC)c21`: the z-score is 0.0668.

Take `COc1ccccc1Nc1nc(-c2c(C)[nH]c3ccccc23)cs1`: the z-score was -0.196.

For the compound `Cc1cccc(NC(=O)CN2C(=O)N/C(=C/c3cc(C)n(C(C)C)c3C)C2=O)c1`, the z-score was -0.148.

`CC(=O)Oc1ccc(C2OC(=O)c3ccccc3N2C(C)=O)cc1` (stereo not given): the z-score was -1.82.

For the compound `CC(=O)Nc1ccc(N2C(=O)CSC2c2c(F)cccc2Cl)cc1` (stereo not given), the z-score is -0.181.

Consider `COc1ccc2c(c1)c(CC(=O)Nc1ccc(C)cc1)c(C)n2C(=O)c1ccc(Cl)cc1`, for which the z-score was -0.284.

With `Cc1cccc(N2CCN(C(c3ccccc3)c3nnnn3CC3CCCO3)CC2)c1C` (stereo not given), the z-score came out at 0.735.

In the case of `COCCNC(=O)C(c1ccc(O)cc1)N(Cc1ccco1)C(=O)CCC(=O)Nc1nccs1` (stereo not given), the z-score came out at 0.231.

`COc1cccc(C(=O)N2CCN(CCCc3ccccc3)CC2)c1OC`: the z-score was -0.632.

As for `COc1ccc(/C=N/NC(=O)Cn2nc(C)c([N+](=O)[O-])c2C)cc1`, the z-score was -1.01.

Turning to `O=C(c1cnc2n(c1=O)CCS2)N(C1CCCCC1)C1CCCCC1`, the z-score was -0.0183.

The compound `CC/C(=N/Nc1ccccc1Cl)c1cnnc(-c2ccccc2)n1` returned a z-score of 0.658.

Take `O=C(Oc1ccc(/C=N/NC(=O)c2ccccc2O)cc1)c1ccccc1`: the z-score was -0.24.

In the case of `CCOC(=O)c1c(NC(=O)CN(C)C)sc(C(=O)N(CC)CC)c1C`, the z-score is -0.0791.

With `Cc1cc(C)nc(N/N=C/c2ccco2)n1`, the z-score was -0.139.

As to `O=c1[nH]c2ccccc2n1CCC1CCCCC1`, the z-score is active: 5.05.

The compound `OC(COc1ccccc1)CN1C2=NCCCN2c2ccccc21` (stereo not given) registered a z-score of 0.279.

For `CCCOc1cccc(C(=O)Nc2cc(NC(=O)c3ccco3)ccc2OC)c1`, the z-score was 0.313.

The compound `CCCOc1ccc(-c2c(C(=O)N/N=C/c3ccc(OC)cc3)nnn2-c2nonc2N)cc1` had a z-score of 0.265.

Regarding `COc1ccc(-n2c(Cc3cc(=O)[nH]c(=O)[nH]3)nnc2SCC(=O)N2CCCC2)cc1`, the z-score is -0.287.

As for `O=C1CCCN1c1ccc(S(=O)(=O)N2CCC(c3ccccc3)CC2)cc1`, the z-score is 0.366.

For the compound `Cc1ccc(NC(=O)C2C(C(=O)O)C3C=CC2C32CC2)cc1` (stereo not given), the z-score is -0.135.

Take `COc1ccc(-c2cc(C(F)(F)F)nc(SCCC(=O)N3CCOCC3)n2)cc1`: the z-score was -0.718.

As to `CCOC(=O)c1sc(NC(=O)c2cc(-c3ccccc3C)nc3ccccc23)c(C#N)c1C`, the z-score was -0.634.

Turning to `CC(C)(C)OC(=O)N1CCC[C@H]1c1nnc(SCc2ccc(Cl)cc2Cl)o1`, the z-score is -0.00439.

For the compound `CCOC(=O)N1CCN(C(=O)C2c3cc(OC)c(OC)cc3C(=O)N3CCc4ccccc4C23)CC1` (stereo not given), the z-score was -0.276.

Regarding `CCOn1c(=O)c(-c2cccs2)[n+]([O-])c2ccccc21`, the z-score is -2.21.

For the compound `O=C(Nc1nncs1)Oc1ccccc1`, the z-score was found to be 0.57.

In the case of `O=C1NC2=C(C(=O)CCC2)C(c2ccc3ncccc3c2)N1` (stereo not given), the z-score was -0.0523.

`C/C(CC(=O)Nc1cc(C)ccn1)=N\NC(=O)C(=O)Nc1cccc(C)c1` had a z-score of 0.277.

Regarding `O=C(NCc1ccc2c(c1)OCO2)Oc1ccccc1`, the z-score was -0.064.

Turning to `Cc1nn2c(N)c(C#N)cnc2c1-c1ccccc1`, the z-score is -0.302.

With `O=C(CSc1nc(-c2ccccc2)c(-c2ccccc2)[nH]1)NCCN1C(=O)CSC1=O`, the z-score was -0.808.

On to `Cc1ccc(C(=O)Nc2cc(Cl)ccc2N2CCCCC2)s1`, for which the z-score was -1.11.

Consider `CCOc1ccccc1C(=O)N1CCN(C(c2ccccc2)c2ccccc2)CC1`, for which the z-score is -0.12.

For `Cc1ccc(C(C)C)c(OCC(O)CN2CCN(CCO)CC2)c1` (stereo not given), the z-score was -0.466.

Turning to `COc1ccccc1CC(=O)Nc1ccc(OC)c(OC)c1`, the z-score is -0.605.

Consider `CCCOc1ccc(/C=N/NC(=O)C2CCCN2S(=O)(=O)c2ccc(Cl)cc2)cc1` (stereo not given), for which the z-score stood at 0.183.

With `CCOc1ccc(S(=O)(=O)Nc2ccc(S(=O)(=O)Nc3cc(OC)ccc3OC)cc2)cc1`, the z-score was -0.209.
